84 compounds from PubChem BioAssay AID1346428 (National Center for Advancing Translational Sciences (NCATS), 2018) can be followed below.

Among all 48,000 compounds or so, about 1,200 (2.5%) were called active. Inconclusive results (about 2%) are left out.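 The calls were made as follows: active = activation of at least 60% and not above a set upper limit (about 1 call in 100 departs from these limits); inconclusive = activation of 40% to 60%, or above that upper limit; inactive = activation under 40%.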 The list shows a part of the results.

UniProt O75388, sequence (O75388 whole entry, looked up): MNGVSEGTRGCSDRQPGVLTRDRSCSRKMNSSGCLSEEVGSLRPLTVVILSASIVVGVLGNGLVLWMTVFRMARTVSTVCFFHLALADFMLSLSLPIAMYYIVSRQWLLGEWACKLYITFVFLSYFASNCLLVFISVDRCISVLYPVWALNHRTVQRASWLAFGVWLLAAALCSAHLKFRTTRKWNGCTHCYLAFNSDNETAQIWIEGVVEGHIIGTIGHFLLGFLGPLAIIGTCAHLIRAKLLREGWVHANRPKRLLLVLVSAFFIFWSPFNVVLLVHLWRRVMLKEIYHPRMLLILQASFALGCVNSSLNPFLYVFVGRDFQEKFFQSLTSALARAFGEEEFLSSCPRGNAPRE

The target in the test is Probable G-protein coupled receptor 32 (Homo sapiens) (UniProt O75388). Kind of test: qHTS for Agonists of Human Resolvin D1 Receptor DRV1. Also: 0% is about no effect. The note with it: CHO-K1 GPR32 beta-arrestin PathHunter luminescence, 90 min; at 76.9 µM; active compounds read high; zero percent set by DMSO-only wells. The method, boiled down:
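Engineered CHO-K1 line co-expressing GPR32-ProLink and EA-beta-arrestin. Compound treatment lasted 90 min at 37 °C. Luminescence was recorded after 1 h with substrate at ambient temperature, relative to DMSO basal wells.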
For orientation: In qHTS, concentration-response curves come from the screen itself.
With `Cc1ccc(CNC(=O)CN(c2ccc(C)cc2)S(=O)(=O)c2c(C)nn(C)c2C)cc1`, the activation is inactive: -1.67%.
Consider `CCN(CC)S(=O)(=O)c1ccc2c(c1)c(=O)c(C(=O)N1CCN(c3cccc(C)c3)C(C)C1)cn2C` (centres undefined), for which the activation was inactive: 5.14%.
In the case of `Cc1ccc2c(=O)cc(C(=O)Nc3ccc(S(=O)(=O)N(C)Cc4ccccc4)cc3)oc2c1` it was inactive: 1.05%; in that of `CCCCn1c(C(C)NC(=O)c2ccccc2)nc2ccccc21` (centres undefined), inactive: -1.08%.
As to `CC(=O)c1ccc(NC(=O)CN(C)S(=O)(=O)c2cccc3nsnc23)cc1`, the activation was inactive: 5.59%.
The figure for `COc1ccccc1-c1cc2nc(C)c(CCC(=O)NCc3cccc(Cl)c3)c(C)n2n1` is inactive: 1.19%.
In the case of `COc1ccc(N2CC(NC(=O)C3CC3)CC2=O)cc1OC` (centres undefined), the activation was inactive: 2.64%.
In the case of `CCOC(=O)C1CCCN(CCC(=O)Nc2cccc(C)c2)C1` (centres undefined) it was inactive: -1.52%; in that of `O=C(Nc1ccc(Cl)cc1)N1CCN(c2ccc3nnc(-c4ccccc4)n3n2)CC1`, inactive: 18.5%; in that of `CN(C)C(=O)Nc1ccc(Cl)c(Cl)c1`, inactive: 6.32%.
In the case of `CCOc1ccc(NC(=O)c2cc3c(=O)n(Cc4cccs4)ccc3nc2C)cc1` it was inactive: -14.1%; in that of `Cn1c(=O)c2c(c3ccccc31)OC(=O)CC2c1cccc(F)c1` (centres undefined), inactive: 4.11%; in that of `O=C(C1CCC(Cn2c(=O)c3sccc3n(Cc3ccccc3F)c2=O)CC1)N1CCCCC1` (centres undefined), inactive: 16.3%.
For `COc1ccccc1N(CC(=O)NCCSCc1cccc(Cl)c1)S(C)(=O)=O`, the activation is active: 87.7%.
The figure for `CCCCNC(=O)C1CCN(S(=O)(=O)c2ccc3c(ccn3CC)c2)CC1` is inactive: 4.59%; for `Cc1cc(C)c(NC(=O)c2ncoc2-c2ccco2)c(C)c1` it is inactive: 0.0313%; for `CC(=O)N1C[C@H](O)C[C@H]1C(=O)O` it is inactive: -5.13%.
In the case of `CC(C)NC(=O)C1CCN(C(=O)c2cc3sccc3n2Cc2ccc(Cl)cc2)CC1` it was inactive: 8.25%.
With `COc1ccc2c(CNC3CCCCCC3)c(C(=O)O)n(Cc3cccc(F)c3)c2c1`, the activation was inactive: -7.58%.
The figure for `O=S(=O)(NCCc1csc2nc(-c3ccccc3)nn12)c1ccc(Cl)s1` is inactive: 11.7%.
In the case of `Cc1cc(C)cc(NC(=O)CSc2nnc(-c3cc4occc4n3C)n2-c2ccccc2C)c1` it was inactive: -13.3%; in that of `CCN(CC)CCSc1nnc2c3cc(F)ccc3n(C)c2n1`, inactive: 6.43%.
The figure for `O=S(=O)(O)c1ccc2nc(-c3ccccc3)[nH]c2c1` is inactive: -25.1%.
As to `CC(NC(CCc1ccccc1)C(=O)O)C(=O)N1C(=O)N(C)CC1C(=O)O` (centres undefined), the activation was inactive: -23.4%.
In the case of `CCOC(=O)c1c(C)[nH]c(CCC(=O)Nc2ccc(Cl)cc2C)c1C` it was inactive: -11.4%; in that of `Cc1ccc(CNCc2c(C(=O)O)n(Cc3ccc(C)cc3)c3cc(C)ccc23)cc1`, active: 98.3%.
In the case of `COC(=O)c1ccc(OC)c(CN2C(=O)N(c3ccc(C(C)=O)cc3)S(=O)(=O)c3ccccc32)c1` it was inactive: -7.47%; in that of `Cc1ccc(-c2noc(CN(C(=O)COc3cc(C)cc(C)c3C)C(C)C)n2)cc1`, inactive: -5.5%; in that of `COc1ccc(-c2noc(CNS(=O)(=O)c3ccc(Br)cc3)n2)cc1OC`, inactive: -8.22%.
In the case of `COC(=O)c1ccc(NC(=O)CN2C(=O)c3cccc4cccc2c34)cc1` it was inactive: 4.5%; in that of `Cc1ccc(NC(c2ccc(Cl)cc2)c2nnc(-c3cccc(F)c3)o2)cc1C` (centres undefined), inactive: -10%; in that of `COc1ccc(-c2cn3nc(SCC(=O)Nc4ccc(C)c(Cl)c4)ccc3n2)cc1`, inactive: -10.7%.
As for `COC(=O)CCNC(=O)N1CCN(c2nnc(C)c3c(C)n(-c4ccc(Cl)cc4)nc23)CC1`, the activation was inactive: -3.15%.
In the case of `COc1ccc(OC)c(CCNC(=O)c2c3c(nc4ccccc24)C(=O)N(C2CCCCC2)C3)c1` it was inactive: -19%; in that of `CCN(CCCNC(=O)c1cc(Nc2ccccc2OC)nc2ccccc12)c1cccc(C)c1`, inactive: -5.53%.
In the case of `Cc1cc(C)c(NC(=O)COc2ccc3c(C)cc(=O)oc3c2)c(C)c1` it was inactive: 13.6%; in that of `O=C(CSc1nc2c([nH]c3ccccc32)c(=O)n1-c1ccc(Cl)cc1)N1CCCC1`, inactive: -2.01%; in that of `CCOC(=O)Cn1c(=O)oc2cc(S(=O)(=O)N3CCN(c4ccc(C(C)=O)cc4)CC3)ccc21`, inactive: -0.311%.
The figure for `CCOc1ccc(S(=O)(=O)c2cn(Cc3cc(C)ccc3C)c3ccc(OCC)cc3c2=O)cc1` is inactive: -13.3%; for `COc1ccc(NC(=O)Cn2nc(C)c3nn(-c4ccc(Cl)cc4)c(C)c3c2=O)cc1` it is inactive: -41.5%.
With `COc1cccc(Nc2nc3cc(Cl)c(Cl)cc3nc2-n2nc(C)cc2C)c1`, the activation was inactive: 8.22%.
In the case of `CC1CCN(c2oc(/C=C/c3ccc(F)cc3)nc2C#N)CC1` it was inactive: -14.7%; in that of `CCOc1ccc(NC(=O)c2cc(S(=O)(=O)N3CCOCC3)ccc2F)cc1`, inactive: 0.469%.
In the case of `CCCOC(=O)c1ccc(Cn2nnc3sc4c(c3c2=O)CCC(C)C4)cc1` (centres undefined) it was inactive: -12.4%; in that of `COc1ccccc1CNC(=O)c1cnc(N2CCCC2)nc1C`, inactive: -4.84%; in that of `COc1ccc(CCNC(=O)CCn2c(=O)c3ccccc3n(CC(=O)Nc3ccc(C)cc3C)c2=O)cc1OC`, inactive: -0.508%.
In the case of `O=C(Nc1ccccc1)C1CCN(S(=O)(=O)c2ccc3[nH]c4c(c3c2)CCCCC4)CC1` it was inactive: 5.52%.
For `COc1ccccc1NC(=O)C1=C(C)Nc2nc(SCc3ccccc3)nn2C1c1cccnc1` (centres undefined), the activation was inactive: -6.69%.
The figure for `CCc1c(C)sc2c1CCN(C(=O)Nc1ccc(F)c(Cl)c1)C2c1ccc(F)cc1` (centres undefined) is inactive: 26.4%; for `CCOc1ccc(-c2nc(Cn3c(=O)cc(C)c4c(C)nn(-c5ccc(C)cc5)c43)c(C)o2)cc1` it is inactive: 25.3%; for `Cc1cc(C)cc(NC(=O)Cn2nnc(-c3nc(-c4ccncc4)no3)c2N)c1` it is inactive: -1.05%.
The figure for `O=C(O)C1=CCCNC1` is inactive: 5.55%.
In the case of `Cc1ccc(N2CCN(S(=O)(=O)c3ccc(F)c(C(=O)Nc4ccc(Cl)cc4Cl)c3)CC2C)cc1` (centres undefined) it was inactive: -20.6%; in that of `Cc1cc2c(cc3c(SCc4nc(-c5ccccc5)oc4C)nnc(C)n32)o1`, inactive: -26.6%; in that of `CCn1ccc2c(OCC(=O)Nc3ccccc3C)cccc2c1=O`, inactive: 44.7%.
Take `CCOC(=O)c1ccc(NC(=O)Nc2cc3c(cc2N2CCCC2)n(C)c(=O)n3C)cc1`: the activation was inactive: -10%.
In the case of `COc1ccc(N2CCN(C(=O)c3cccc(NC(=O)c4nsc5ccccc45)c3)CC2)cc1` it was inactive: 1.26%; in that of `O=C(Nc1ccc2nc(SCC(=O)N3CCCc4ccccc43)sc2c1)c1ccccc1`, inactive: -20.2%.
The figure for `Cc1ccc(C(=O)O[C@H](C(=O)O)[C@@H](OC(=O)c2ccc(C)cc2)C(=O)O)cc1` (tested in a mixture with another compound) is inactive: -7.75%; for `COc1ccc(S(=O)(=O)Nc2ccc3c(c2)CCCN3S(=O)(=O)c2ccc(C)cc2)cc1F` it is inactive: -24%.
The figure for `COc1cccc(CNC(=O)c2cc(C)nc3c2c(C)nn3-c2cccc(F)c2)c1` is inactive: -17.7%.
On to `COc1ccccc1N1CCN(CCCCNS(=O)(=O)c2cccc3c(N(C)C)cccc23)CC1`, for which the activation was inactive: 8.23%.
For `Cc1cc(CC(=O)O)n(C)c1C(=O)c1ccc(Cl)cc1`, the activation was inactive: -9.19%.
In the case of `Nc1c(C(=O)Nc2ccc(F)c(F)c2)sc2nc(-c3ccncc3)ccc12` it was inactive: -7.05%; in that of `NCCNC(=O)c1ncsc1-c1cccc(F)c1`, inactive: -11.5%; in that of `COC(=O)c1cc(NC(=O)c2nn(C)c3c2COc2ccccc2-3)cc(C(=O)OC)c1`, inactive: -9.39%.
In the case of `O=C(COCc1cc(-c2ccc3c(c2)OCO3)on1)N1CCN(c2ccccc2)CC1` it was inactive: -7.46%; in that of `COc1ccccc1NC(=O)C1=C(C)Nc2nc(SCc3ccccc3F)nn2C1c1cccs1` (centres undefined), inactive: 33.7%.
The figure for `COc1ccc(-n2nnnc2C2CCN(S(=O)(=O)c3ccc(C(C)(C)C)cc3)CC2)cc1` is inactive: -22.8%; for `CCC(CC)C(=O)Nc1nc2c(s1)CC(C)CC2` (centres undefined) it is inactive: 14.5%.
For `Cc1ccc(S(=O)(=O)NCCc2cn3ccsc3n2)cc1`, the activation was inactive: -0.744%.
The figure for `CN(C(=O)c1cc2c(s1)-c1ccc(Cl)cc1SC2)c1cccc(C(F)(F)F)c1` is inactive: 22.6%; for `O=C(CN1C(=O)COc2ccc(S(=O)(=O)N3CCCCC3)cc21)NCc1ccc(Cl)cc1` it is inactive: -16.7%.
The figure for `COc1ccc(CCNC(=O)c2cnc3sc(N4CCCC4)nn3c2=O)cc1OC` is inactive: -5.19%; for `CSCCC(NS(=O)(=O)c1ccc2c(c1)oc(=O)n2C)C(=O)N1CCN(c2cccc(Cl)c2)CC1` (centres undefined) it is inactive: -24.5%.
In the case of `Cc1ccc(CNC(=O)c2nnn(CC(=O)Nc3cc(C)ccc3C)c2N)cc1` it was inactive: -1.16%; in that of `Cc1ccc(CN(Cc2ccco2)C(=O)COc2ccc(Cl)cc2)o1`, inactive: -4.69%.
On to `CCOC(=O)c1cc(-c2ccc(F)cc2)n(CCC(=O)NCCc2ccc(C)cc2)c1C`, for which the activation is inactive: -27.4%.
The figure for `COc1cc(NC(=O)c2cc3ccccn3n2)cc(OC)c1OC` is inactive: 1.75%.
In the case of `CCOc1ccc(-c2cc(-c3nc(-c4cc(OC)c(OC)c(OC)c4)no3)[nH]n2)cc1` it was inactive: -4.81%; in that of `CCc1ccccc1NS(=O)(=O)c1ccc(NC(=O)N2CCCC2)cc1`, inactive: 3.22%.
In the case of `CC(=O)c1ccc(NC(=O)c2ccc(-c3nc(CSc4ccccc4)c(C)o3)cc2)cc1` it was inactive: -8.6%.
As for `COc1cc(NC(=O)c2cc(C)nc3c2c(C)nn3-c2ccccc2Cl)cc(OC)c1`, the activation is inactive: -5%.
Regarding `Cc1ccc2cc3c(N)nn(C(=O)c4cccc(F)c4)c3nc2c1`, the activation is inactive: -8.56%.
